Data as given in PubChem BioAssay AID240 (DTP/NCI, 2004).
Inconclusive results and toxic doses are left out. For part of its entries the source gives two or more results. This is not the full list of results. There may be further records. The records of an entry repeat one measurement (runs, samples, wells, individuals or studies).

System: Lymphoma 4 ip in BDF1 mice, median survival
Test: NCI In Vivo Anticancer Drug Screen. Data for tumor model Lymphoma 4 (intraperitoneal) in B6D2F1 (BDF1) mice
Conditions: endpoint: median survival time; dose: 0.25 mg/kg/injection; schedule: Q01DX010 (ip); vehicle: saline; higher = longer survival
Method: The antitumor activity of compounds was measured in mice bearing transplantable tumors. Survival or tumor size were measured and the results are expressed as the measurement made in the treated group (T) divided by the measurement made in the vehicle treated control group (C). The tumor model used in this assay is Lymphoma 4 (intraperitoneal) in B6D2F1 (BDF1) mice

For `CC[C@]1(O)C[C@H]2CN(CCc3c([nH]c4ccccc34)[C@@](C(=O)OC)(c3cc4c(cc3OC)N(C=O)[C@H]3[C@@](O)(C(=O)OC)[C@H](OC(C)=O)[C@]5(CC)C=CCN6CC[C@]43[C@@H]65)C2)C1`, the T/C was 101 % of control and 190 % of control.
